In paper PMC8979985:
These are yes or no findings as the source states them, for the method shown. Binding seen in cells or lysates may run through a third protein. Some entries that bind do so weakly or less than the wild type.

Chains of the proteins cited; added tags and fusions are not shown. Lines headed by an entry give the natural chain unless they say otherwise; changes in a name come on top. A line that says so, or that is headed by a name, gives the form on record, which may keep a tag or linker. Residues count along the entry.
UniProt P00519: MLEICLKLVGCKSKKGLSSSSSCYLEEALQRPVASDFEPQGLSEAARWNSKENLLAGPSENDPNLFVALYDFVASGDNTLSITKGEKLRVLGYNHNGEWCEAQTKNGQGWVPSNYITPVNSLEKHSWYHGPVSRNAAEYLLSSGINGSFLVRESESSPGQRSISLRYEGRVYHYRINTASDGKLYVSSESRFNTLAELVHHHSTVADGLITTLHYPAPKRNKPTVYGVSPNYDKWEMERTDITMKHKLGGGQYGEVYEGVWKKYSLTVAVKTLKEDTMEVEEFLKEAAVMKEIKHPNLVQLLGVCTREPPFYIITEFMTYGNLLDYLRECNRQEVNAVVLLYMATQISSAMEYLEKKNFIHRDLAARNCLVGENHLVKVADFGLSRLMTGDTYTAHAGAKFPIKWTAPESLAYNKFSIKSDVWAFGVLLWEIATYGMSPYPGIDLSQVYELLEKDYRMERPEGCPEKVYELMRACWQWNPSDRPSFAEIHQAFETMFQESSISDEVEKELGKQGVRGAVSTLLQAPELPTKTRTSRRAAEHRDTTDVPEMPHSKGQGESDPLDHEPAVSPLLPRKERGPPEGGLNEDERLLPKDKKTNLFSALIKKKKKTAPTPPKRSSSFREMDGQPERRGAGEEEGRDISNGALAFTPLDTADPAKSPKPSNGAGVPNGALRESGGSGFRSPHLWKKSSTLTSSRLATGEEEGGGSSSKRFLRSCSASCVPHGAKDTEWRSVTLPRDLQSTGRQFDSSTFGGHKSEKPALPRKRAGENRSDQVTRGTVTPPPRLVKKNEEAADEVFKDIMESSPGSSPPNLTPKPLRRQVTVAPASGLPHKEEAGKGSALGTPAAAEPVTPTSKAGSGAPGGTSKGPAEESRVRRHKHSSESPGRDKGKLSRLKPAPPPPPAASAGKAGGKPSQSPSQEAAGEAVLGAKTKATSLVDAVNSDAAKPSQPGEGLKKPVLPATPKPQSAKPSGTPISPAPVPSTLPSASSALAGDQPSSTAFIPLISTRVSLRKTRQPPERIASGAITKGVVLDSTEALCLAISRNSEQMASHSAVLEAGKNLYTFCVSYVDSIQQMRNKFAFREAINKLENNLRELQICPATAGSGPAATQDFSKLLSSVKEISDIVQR
GST-c-Abl-SH3: residues 61-121 of P00519
Flag-c-Abl (P00519-2, form named): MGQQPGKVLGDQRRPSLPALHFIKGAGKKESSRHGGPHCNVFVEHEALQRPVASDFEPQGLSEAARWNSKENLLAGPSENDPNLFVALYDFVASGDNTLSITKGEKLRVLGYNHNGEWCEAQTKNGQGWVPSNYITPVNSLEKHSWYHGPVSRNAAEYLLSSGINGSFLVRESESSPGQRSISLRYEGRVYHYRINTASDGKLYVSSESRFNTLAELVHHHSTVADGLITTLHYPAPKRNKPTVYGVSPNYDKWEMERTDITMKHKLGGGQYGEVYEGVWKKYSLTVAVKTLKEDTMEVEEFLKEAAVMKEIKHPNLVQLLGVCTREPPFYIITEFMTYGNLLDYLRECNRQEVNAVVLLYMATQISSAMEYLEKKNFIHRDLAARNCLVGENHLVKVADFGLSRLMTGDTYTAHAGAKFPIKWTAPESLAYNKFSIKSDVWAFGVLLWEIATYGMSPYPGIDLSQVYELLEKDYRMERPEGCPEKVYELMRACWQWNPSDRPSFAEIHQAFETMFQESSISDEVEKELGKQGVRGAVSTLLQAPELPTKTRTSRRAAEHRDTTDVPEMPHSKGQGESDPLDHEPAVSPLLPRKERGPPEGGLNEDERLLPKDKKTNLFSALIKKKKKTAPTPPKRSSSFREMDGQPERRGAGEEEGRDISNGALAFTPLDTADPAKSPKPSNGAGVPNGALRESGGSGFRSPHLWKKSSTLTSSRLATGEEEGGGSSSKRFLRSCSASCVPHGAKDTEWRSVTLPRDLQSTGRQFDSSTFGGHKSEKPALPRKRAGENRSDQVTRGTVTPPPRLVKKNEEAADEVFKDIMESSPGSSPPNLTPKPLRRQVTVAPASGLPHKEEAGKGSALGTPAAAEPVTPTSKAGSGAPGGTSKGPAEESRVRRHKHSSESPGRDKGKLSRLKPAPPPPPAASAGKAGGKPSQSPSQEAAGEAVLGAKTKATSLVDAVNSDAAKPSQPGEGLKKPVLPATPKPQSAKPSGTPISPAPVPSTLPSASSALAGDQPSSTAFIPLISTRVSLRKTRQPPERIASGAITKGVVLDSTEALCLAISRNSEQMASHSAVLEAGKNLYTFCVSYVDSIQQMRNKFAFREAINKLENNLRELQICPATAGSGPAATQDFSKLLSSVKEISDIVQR
UniProt O00165: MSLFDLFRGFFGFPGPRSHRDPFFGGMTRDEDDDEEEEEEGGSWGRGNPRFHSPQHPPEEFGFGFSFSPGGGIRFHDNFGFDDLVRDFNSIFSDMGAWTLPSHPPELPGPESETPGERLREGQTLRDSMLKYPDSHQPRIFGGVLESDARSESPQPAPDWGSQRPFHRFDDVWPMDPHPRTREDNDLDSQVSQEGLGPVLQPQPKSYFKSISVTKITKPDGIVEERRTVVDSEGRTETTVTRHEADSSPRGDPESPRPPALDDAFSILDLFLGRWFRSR
Myc-HAX-1(Q190X): residues 1-189 of O00165
Myc-HAX-1 (1–128): residues 1-128 of O00165
Myc-HAX-1 (129–279): residues 129-279 of O00165

Key:
Flag-c-Abl = Flag-c-Abl (UniProt P00519); experiment: co-IP; HEK 293 cells co-transfected with Flag- and Myc-tagged plasmids; anti-Flag agarose immunoprecipitates, immunoblot with anti-Myc or anti-Flag; lysis buffer 50 mM Tris-HCl pH 7.5, 150 mM NaCl, 1% Nonidet P-40, 0.5 mM EDTA
[1] = target: phosphorylated c-Abl (endogenous, MCF-7) (human (endogenous in MCF-7)) (UniProt P00519); experiment: proximity ligation; in situ PLA on MCF-7 cells transfected with Myc-HAX-1 or Myc-vector; primary antibodies from two different species
Flag-HAX-1 (human) = Flag-HAX-1 (human) (UniProt O00165); experiment: co-IP; HEK 293 cells co-transfected with Flag- and Myc-tagged plasmids; anti-Flag agarose immunoprecipitates, immunoblot with anti-Myc or anti-Flag; lysis buffer 50 mM Tris-HCl pH 7.5, 150 mM NaCl, 1% Nonidet P-40, 0.5 mM EDTA
GST-c-Abl-SH3 = GST-c-Abl-SH3 (UniProt P00519); experiment: pull-down; 2 μg of GST or GST fusion protein on glutathione Sepharose beads incubated with lysates of transfected HEK 293 cells for 2 h at 4°C; washed with lysis buffer; immunoblot; only the target purified
[2] = target: c-Abl kinase (endogenous, MCF-7) (human (endogenous in MCF-7)) (UniProt P00519); experiment: co-IP; anti-c-Abl (K-12) immunoprecipitates of MCF-7 lysates, IgG as control, immunoblot; lysis buffer 50 mM Tris-HCl pH 7.5, 150 mM NaCl, 1% Nonidet P-40, 0.5 mM EDTA; cells untreated, treated with H2O2 (1 mM, 3 h), irradiated (10 Gy) or transfected with HAX-1
[3] = target: c-Abl kinase (endogenous, MCF-7) (human (endogenous in MCF-7)) (UniProt P00519); experiment: proximity ligation; Duolink in situ PLA on fixed MCF-7 cells with rabbit anti-HAX-1 and mouse anti-c-Abl; cells untreated or treated with CDDP (25 mM, 8 h) or H2O2 (1 mM, 3 h; dose series)

“Myc-HAX-1(Q190X) (from UniProt O00165-1 1-189) (domain or fragment)” was tested, and the binding (Flag-c-Abl) was “no binding”.
In the case of Myc-HAX-1 (from UniProt O00165-1 1-279), the binding (Flag-c-Abl) is reported as “binds”.
With “Myc-HAX-1 (in MCF-7 cells) (from UniProt O00165-1 1-279)” the binding [1] was “binds”.
“Myc-c-Abl (from UniProt P00519-2 1-1149) (enzyme)” was tested, and the binding (Flag-HAX-1 (human)) was “binds”.
“Flag-HAX-1 (from UniProt O00165-1 1-279)” was tested, and the binding (GST-c-Abl-SH3) was “binds”.
“Myc-HAX-1 (1–128) (from UniProt O00165-1 1-128) (domain or fragment)” was tested, and the binding (GST-c-Abl-SH3) was “no binding (tested: 2 μg of GST-c-Abl-SH3 on the beads)” and the binding (Flag-c-Abl) was “no binding”.
For “HAX-1 (endogenous, MCF-7) (from UniProt O00165 1-279)”, the binding [2] was “binds” and the binding [3] was “binds”.
With “Myc-HAX-1 (129–279) (from UniProt O00165-1 129-279) (domain or fragment)” the binding (GST-c-Abl-SH3) was “binds” and the binding (Flag-c-Abl) was “binds”.
